“And” between values parts separate entries of the source, which are not always exact repeats. Equal entries are not always repeated. Out of some 340,000 compounds screened, about 12,000 (3.5%) were called active. The inconclusive results got no clear call from the source; some entries with a clear call stand among them for comparison. Calls follow the shape of the dose curve; as a rule, active = well fitted inhibition curve with a large enough effect; inconclusive = small, poorly fitted or top-dose-only effect, or another doubt; inactive = no such curve, though single readings can be large or run the other way. Potencies of inconclusive entries are doubtful fits and often do not repeat.
Experiment: qHTS Assay for Inhibitors of Hepatitis C Virus (HCV)
Conditions: Huh7.5.1 HCVcc-Cre (HCVcc is cell-culture hepatitis C virus) infection, luciferase reporter, 44 h; activity change, negative = inhibition: at 41.8 µM (top of the series) unless noted
Method in brief: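 Compounds are dispensed onto cells plated 4 h earlier at 1,000 per well, with HCVcc-Cre virus (about 0.5 moi) added next. Following 44 h of culture, luminescent signal is measured for 15 sec after 15 min with substrate at room temperature.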
% is scaled to controls: 0 for no effect and ±100 for the full control effect; potency is read from the fitted curve at half-maximal effect; tags tell the direction and shape of the fitted curve.

Structure (SMILES)	Potency	activity change, negative = inhibition
CCCCCn1c(SCC(=O)OCC)nc2cc(C(=O)N3CCC(C(N)=O)CC3)ccc2c1=O	inactive	–
Cc1cc(C(=O)COC(=O)c2cccc(S(=O)(=O)N(C)C)c2)c(C)n1CC1CCCO1 (stereo unspecified)	inactive	–
Cc1ccc(O)c(NC(=O)C2=CC(c3ccco3)=NS(=O)(=O)N2C)c1	inactive	–
CCC(=O)OCC(=O)Nc1ccc2c(c1)OCO2	inactive	–
CCCCNc1c(-c2ccc(OC)c(Sc3ccc(OC)cc3)c2)nc2cnccn12	inconclusive: 10 µM [inhibitor, partial curve]	–
CCCC/C=C1/CCC(CN(C)C)C1=O (stereo unspecified)	inconclusive: 4.47 µM [inhibitor, full curve]	–
FC(F)(F)c1cnc(Sc2nnc(-c3cccs3)n2CC2CCCO2)c(Cl)c1 (stereo unspecified)	inactive	–
Cn1c(Oc2ccccc2NCc2cccc(Br)c2)cc(=O)n(C)c1=O	inconclusive: 31.6 µM [inhibitor, single point]	–
N#CC(C#N)=C(Nc1ccc(F)cc1)SCc1cccc(Br)c1	active: 5.01 µM	–
Cc1ccc2c(COC(=O)c3ccccc3Br)cc(=O)oc2c1	inconclusive: 3.16 µM [inhibitor, single point]	–
CCC1(c2ccc(F)cc2)NC(=O)N(CC(=O)Nc2ccc(-c3nc4ccc(C)cc4s3)cc2)C1=O (stereo unspecified)	inconclusive: 5.62 µM [inhibitor, single point]	–
Cc1ccc(S(=O)(=O)N(CC(=O)N2CCc3ccccc3C2)c2cccc(Cl)c2)cc1	inconclusive: 31.6 µM [inhibitor, single point]	–
O=C(Nc1ccc(Cl)cn1)Nc1ccccc1F	inconclusive: 5.62 µM [inhibitor, single point]	–
COc1ccc(NC(C)=O)cc1NC(=O)c1cccc(S(=O)(=O)N2CCc3ccccc32)c1	active: 10 µM	–
Cc1cccc(OCC(=O)NCc2cc(C)nc3ccccc23)c1	inconclusive: 11.2 µM [inhibitor, single point]	–
COc1ccc(C(=O)OCc2c(-c3ccccc3)ncc3ccccc23)cc1	inconclusive: 6.31 µM [inhibitor, single point]	–
CN(C)S(=O)(=O)c1cccc(C(=O)Nc2ccccc2Cl)c1	inconclusive: 31.6 µM [inhibitor, single point]	–
COc1ccc(C2NCCc3c2[nH]c2ccccc32)cc1CSc1nc2ccccc2s1 (stereo unspecified)	inconclusive: 31.6 µM [inhibitor, single point]	–
O=C(O)CCS(=O)(=O)c1ccccc1Cl	inactive	–
O=C(CN1C2=NCCCN2c2ccccc21)c1ccc(Br)s1	inconclusive: 8.91 µM [inhibitor, partial curve]	–
C=CCSc1nc(N)c2c(C)c(C)sc2n1	inactive	–
CCn1c(CSc2nc(C)cc(C)n2)nnc1SCC(=O)Nc1nc(-c2ccccc2)cs1	inconclusive: 1 µM [inhibitor, full curve] and inconclusive: 562 nM [inhibitor, partial curve, poor fit]	–
CCC(C)c1ccccc1N1CC(C(=O)N2CCN(C(=O)c3ccco3)CC2)CC1=O (stereo unspecified)	inactive	–
Cc1ccc(CCNC(=O)c2cc(S(=O)(=O)N3CCCC3)cn2C)cc1	inconclusive: 10 µM [inhibitor, partial curve]	–
O=C1C2C3C=CC(C4CC34)C2C(=O)N1Cc1ccccc1 (stereo unspecified)	inactive	–
CN(C(=O)CSc1ccc(S(=O)(=O)N2CCCCC2)cn1)c1ccccc1	inactive	–

Structure (SMILES)	Potency	activity change, negative = inhibition
COc1ccc(-c2noc(CCC(=O)Nc3cccc(C)c3)n2)cc1	inconclusive: 15.8 µM [inhibitor, single point]	–
O=C(NCc1ccccn1)c1cc(-c2ccccc2Cl)nc2ccccc12	inactive	–
O=C(CSc1nc2[nH]ncc2c(=O)n1-c1ccc(Cl)c(Cl)c1)NCc1ccccc1Cl	inconclusive: 15.8 µM [inhibitor, single point]	–
CCC(C)NCCOCCOc1ccc(Cl)c(C)c1C (stereo unspecified)	active: 10 µM	–
COc1ccc(OC)c(S(=O)(=O)N(C)CC(=O)N2CCN(c3ccccc3F)CC2)c1	inconclusive: 10 µM [inhibitor, partial curve]	–
CCOC(=O)c1c(CN2CCN(CCO)CC2)n(-c2ccccc2)c2cc(Br)c(O)cc12	inconclusive: 22.4 µM [inhibitor, single point]	–
COc1cc2c(cc1NCc1ccc3c(c1)OCO3)oc1ccccc12	inconclusive: 22.4 µM [inhibitor, single point]	–
C=C(C)[C@@H]1CC=C(CN2CCC(N3CCC(C(=O)N4CCCC4)CC3)CC2)CC1	inconclusive: 0.562 µM [inhibitor, full curve]	–
CCn1c(N)c(C(=O)Nc2ccccc2C(=O)OC)sc1=S	active: 10 µM	–
O=C(COc1ccc2ccc(=O)oc2c1)N1CCN(C(=O)C2COc3ccccc3O2)CC1 (stereo unspecified)	inconclusive: 11.2 µM [inhibitor, single point]	–
CN(CC(=O)Nc1cccc(F)c1)C(=O)c1cn(-c2ccccc2)nc1-c1ccccc1	inactive	–
Cc1cc(=S)nc(-c2ccccn2)[nH]1	inactive	–
CN(C)C(=O)c1ccc(NC(=O)c2ccc(-c3ccc(Cl)cc3)o2)cc1	inconclusive: 31.6 µM [inhibitor, single point]	–
O=C1C=C(c2ccc(Cl)nc2)C[C@@H](c2ccc3c(c2)OCO3)C1	inconclusive: 5.62 µM [inhibitor, single point]	–
Cc1ccc(NC(=O)CN(C)C2CCCCC2)cc1Br	inconclusive: 14.1 µM [inhibitor, single point]	–
Cc1ccc2c(C(=O)CNc3nncs3)c(C)[nH]c2c1	inconclusive: 10 µM [inhibitor, partial curve]	–
O=S(=O)(c1ccc(NC(=S)N/N=C/c2c3ccccc3cc3ccccc23)cc1)N1CCOCC1	active: 2.82 µM	–
CCn1c(=NC(=O)c2ccc(S(=O)(=O)N3CCOCC3)cc2)sc2cccc(OC)c21	active: 10 µM	–
COc1ccc(OC)c(NC(=O)CCOc2cccc(C)c2)c1	active: 11.2 µM	–
COc1ccc(NC(=O)/C=C/c2ccc(F)cc2)cn1	inconclusive: 31.6 µM [inhibitor, single point]	–
Cn1c(-c2csc(-c3ccccc3)n2)n[nH]c1=S	inactive	–
CC(NC(=O)Nc1ccc(Cl)cc1)C(c1cccs1)N1CCOCC1 (stereo unspecified)	inactive	–
COc1ccc(CCNC(=O)C(=O)NCC2OCCN2S(=O)(=O)c2ccc3c(c2)OCCO3)cc1OC (stereo unspecified)	inconclusive: 31.6 µM [inhibitor, single point]	–
CC(=O)Nc1ccccc1OCc1nnc(-c2ccccc2Cl)o1	inconclusive: 14.1 µM [inhibitor, single point]	–
CCCCNc1ncnc2c1cnn2Cc1ccc(Cl)cc1	inconclusive: 14.1 µM [inhibitor, single point]	–
CCCCCN(C(=O)CN1CCC(Cc2ccccc2)CC1)c1c(N)n(CCCC)c(=O)[nH]c1=O	inconclusive: 3.55 µM [inhibitor, full curve]	–

Structure (SMILES)	Potency	activity change, negative = inhibition
N=c1n(Cc2ccc(Cl)cc2)c2ccccc2n1CC(O)c1ccco1 (stereo unspecified)	active: 11.2 µM	–
CC1=NN(c2ccccc2)C(=O)/C1=C\C=C\c1ccccc1	–	inconclusive: -71.6% [inhibitor]
COc1ccc(C)cc1N(C(=O)COc1ccccc1)c1nc2ccccc2s1	inactive	–
CC1CCN(C(=O)CNC(=O)c2cccc(OC(F)F)c2)CC1	inactive	–
O=C1C(=C2SCCCS2)CC/C1=C\c1ccc(F)cc1	inactive	–
COc1cccc(Nc2nc(N)nc(CCl)n2)c1	–	inconclusive: -79.8% [inhibitor]
Cc1cc(N)c(-n2cc3c(=O)n(C)c(=O)n(C)c3c2)cc1C	inactive	–
CCOc1ccc(CN(C)C(=O)CNC(=O)Cc2cccc3ccccc23)cc1	inconclusive: 20 µM [inhibitor, single point]	–
CC(=O)Nc1ccc(Nc2cc(C(C)C)nc3c(-c4ccccc4)c(C)nn23)cc1	active: 2.51 µM	–
CN(C)N1C(N)=C(C#N)C(c2ccccc2)C2=C1CC(C)(C)CC2=O (stereo unspecified)	inactive	–
OCCN(CCO)c1ncnc2c1sc1nc(N3CCOCC3)c3c(c12)CCCC3	inconclusive: 22.4 µM [inhibitor, single point]	–
O=C(OCn1ncc(Br)c(Br)c1=O)c1c(F)cccc1F	active: 2.82 µM	–
COc1cccc(OC)c1C(=O)Nc1cc(C)nn1-c1nc2ccccc2[nH]1	active: 11.2 µM	–
COC(=O)C1=C(O)/C(=C\c2ccc(OCC(=O)Nc3ccc(OC)cc3)cc2)N=C1C	inactive	–
CCOc1ncccc1C(=O)Nc1ccc(OC)c(S(=O)(=O)N2CCOCC2)c1	inactive	–
CCOc1cc(/C=C(/C#N)c2nc3ccccc3[nH]2)ccc1Oc1ccc([N+](=O)[O-])cn1	inconclusive: 0.891 µM [inhibitor, full curve]	–
Cc1ccsc1C(=O)N1CCCC(C(=O)c2cc(F)ccc2F)C1 (stereo unspecified)	inactive	–
Nc1nc(CN2CCN(c3ccccc3F)CC2)nc(Nc2ccccc2)n1	inactive	–
CC(=O)NC12CC3CC(C1)CC(C(=O)N1CCN(S(=O)(=O)c4ccc(C(C)C)cc4)CC1)(C3)C2	inactive	–
O=C(c1ccccc1[N+](=O)[O-])N1CC2C3C=CC(C3)C2C1 (stereo unspecified)	inactive	–
COc1ccc(-c2cc(C(=O)NCCCN3CCCC3=O)c3ccccc3n2)cc1OC	inactive	–
COCc1cc(C)nc(NC2CCCCC2)c1C#N	inactive	–
COc1ccc(-c2noc3c2-c2nc(-c4c(F)cccc4F)sc2CC3)cc1	active: 3.55 µM	–
CC(C)N1CCN(Cc2ccc(OCc3ccccc3)cc2)CC1CCO (stereo unspecified)	inconclusive: 11.2 µM [inhibitor, partial curve]	–

Source: PubChem BioAssay AID651820 (National Center for Advancing Translational Sciences (NCATS), 2012)
